Data on 167 variants can be found in the RNAGym collection of RNA variant scans (doi:10.1093/nar/gkz1192).

Sequences and labels used below:
B1: CPEB3 Ribozyme (parent)
chain: UAACAGGGGGCCACAGCAGAAGCGUUCACGUCGCAGCCCCUGUCAGAUUCUGGUGAAUCUGCGAAUUCUGCUGUAUAUCUC

Read counts are not given, so values of variants with three or more changes are uncertain.

The variants in the series derive from B1. The series can be described thus: self-cleavage, relative activity (ratio to wild type); higher = more cleavage; in vitro, sequencing. In short, it runs like this: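 Barcoded CPEB3 ribozyme mutants, produced by rounds of error-prone PCR, self-cleaved while being transcribed with T7 RNA polymerase for 5 hours at 37°C and during a subsequent 15 min DNase I step before EDTA was added. Sequencing of template-switched cDNA on Illumina gave cleaved and total reads, and DNA sequencing assigned barcodes to variants. Each variant's relative activity is its cleaved/total read fraction divided by the unmutated ribozyme's fraction, averaged across three batches. A variant needed a minimum of 5 reads.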
As for A20G U48C U80C, the self-cleavage was 0.66. In the case of A20G A28G C40U U49C U66C U78C, the self-cleavage came to 0.04. For A20G A28C C50A U60A, the self-cleavage stood at 0.2. Then A20G U25C A56U, with 0.11; and A20G G36C U60C, with 0.16.

A20U C34U U51A U67C: the self-cleavage amounted to 0.12. Then A20U A21G U60A, with 0.12; and A20G C37G C62U, with 0.09.

For A20G A35U A45G A65G U69C, the self-cleavage came to 0.26. As for A20G A45G A47G, the self-cleavage stood at 0.24.

Turning to A20U U41C U48C, the self-cleavage amounted to 0.49.

For A20G C23U U49G U54C A56U, the self-cleavage was found to be 0.08. The value for A20G U43C G63A U66C U72G was 0.12; that for A20G U48C G52A A57G was 1.06; that for A20G G36A U80C was 0.12. Then A20G C44U U69C, with 0.24; and A20G C37U C40U U67A U69C, with 0.19; and A20G U72A U78A, with 1.2. The value for A20G A64G A75U was 0.78; that for A20G G30U C38G U54A U60C was 0.06. In the case of A20G U26C U48C U51A U76A U78C, the self-cleavage turned out to be 0.23.

In the case of A20G U25C U58C, the self-cleavage worked out at 0.18. The value for A20G U60C U80A was 0.34; that for A20G G30U U69A was 0.17. Then A20G U41C A45G U49C, with 0.26; and A20G U26C U51A, with 0.51.

As for A20G U26C U69A, the self-cleavage turned out to be 0.35.

A20G U51A A64C: the self-cleavage was 0.56. Then A20G A21G U26C U80C, with 0.27; and A20G A28G G30A U41A A47U U54A, with 0.07; and A20U U43A A57G A64G U66C U78A, with 0.16. Consider A20G U31C U51C, for which the self-cleavage amounted to 0.41.

As to A20U C50U A57C U72C, the self-cleavage stood at 0.09. On to A20U G22A A57G, for which the self-cleavage stood at 0.04.

Consider A20G U58A C68U A77G, for which the self-cleavage is 0.1. The value for A20G G30C U51A U60C U66C U72C U80C was 0.07; that for A20G U26A U66C G73A A77G was 0.46. Then A20G A35G U80C, with 1.2. Then A20U A21U G30A A77U, with 0.15; and A20G U51A A57U U80C, with 0.39.

As to A20G C40G U60G U76A, the self-cleavage is 0.21. Then A20G C32A U54C A65G, with 0.16. Then A20U A45G U58C G70A U72C U76A, with 0.07. Then A20G U31G A35G U43C U54C U60C, with 0.28; and A20G U58C U78C, with 0.35. As for A20G G24C A35U U58A U74C, the self-cleavage was 0.02. Then A20G A21G U58A, with 0.41; and A20G U54A U72C, with 0.99. The value for A20G A47G C59A was 0.31; that for A20G U26A U66A U78C was 0.24; that for A20G U58C U60C U76A was 0.08. As for A20G A64C U72A, the self-cleavage came out at 0.17. The value for A20U U51C U69A G73A was 0.35; that for A20G A65G A75U was 0.46.

A20U U26C A77U: the self-cleavage is 0.17. As for A20U A47G U72C U80C, the self-cleavage amounted to 0.16.

Take A20G G24A U31A U54C U66C: the self-cleavage was 0.17. The value for A20G A28U C29U U78A was 0.08; that for A20G U41C U43C A56G was 0.27; that for A20G U25G U31C U49C A56G was 0.4. Then A20G G42A A65C U66C U72C U78A, with 0.12; and A20G U43A A45G A77G, with 0.87; and A20G A47G A56G, with 0.43. The value for A20G C39U U60C U69C was 0.42; that for A20U A35G U43C U48C G55C was 0.16; that for A20G U26C A64G was 0.31. With A20G G33C U41C A65U, the self-cleavage turned out to be 0.11. The value for A20G U54G U60C G63C was 0.25; that for A20G A21G U31G was 0.09. As to A20G A28G U43A A56G A65U, the self-cleavage was 0. Then A20U A65G U78C, with 0.22; and A20G A35U U54C, with 0.3. The value for A20U A28G U41A A75U was 0.12. Then A20G C32A U66C, with 0.2; and A20G A57G U58C, with 0.27.

As for A20U A28C U43C, the self-cleavage is 0.22. Then A20G C23A G63U U69A A77U, with 0.07.

For the variant A20U U25A C71G, the self-cleavage is 0.13. As for A20G U43C C50A, the self-cleavage is 0.25.

In the case of A20G C40U U51C U54A, the self-cleavage worked out at 0.37. Consider A20G U43A A56U A75U, for which the self-cleavage came out at 0.41.

As for A20G U25C C29U U78C, the self-cleavage was 0.24. Consider A20G U31C A47G, for which the self-cleavage turned out to be 0.56. Then A20G U26A A28U U60C U69A U72C, with 0.18; and A20G G42U C44U U54A A56G A57G C71A, with 0.06. The value for A20G C37U U72G was 0.5; that for A20G G33A U49C U51A A56U G73A was 0.05; that for A20G G36U U60A U72A was 0.1. The value for A20G U25A U54G A65G U80A was 0.07.

As for A20G G33C U72A U76C, the self-cleavage stood at 0.07. The value for A20G U25C U41A was 0.42; that for A20G U49A U66C was 0.21; that for A20U U54C U78C was 0.22. The value for A20G A47G U49C U72A was 0.17; that for A20G G33A U69A was 0.1. The value for A20U G33A A45U was 0.13. With A20G A57G U58C U72C U80C, the self-cleavage came out at 0.29. Then A20G A35U G42A, with 0.54. The value for A20U U31A C37U was 0.07; that for A20G C32U U60C was 0.06.

For the variant A20G U49A A77G U78G, the self-cleavage turned out to be 0.36. The value for A20G U25C A57G U76C was 0.36. For the variant A20U A35G U66A U72A, the self-cleavage was found to be 0.64. As for A20G U58C A65U, the self-cleavage turned out to be 0.07. The value for A20G U66A U74C U78C was 0.65; that for A20U G24U U60C was 0.1. The value for A20U U25A U60C U80G was 0.09; that for A20U U49G A64G was 0.19. For A20G U41C U69C U72A U80C, the self-cleavage amounted to 0.26. The value for A20G A45C U74A was 0.66; that for A20U U25C U49C was 0.26. Then A20G U48G A57C U67C, with 0.84. The value for A20U A28G A35G C40A U41A A47G was 0.08; that for A20U A28C U41C U43C was 0.21. As for A20G U25C U41C U49C, the self-cleavage amounted to 0.26. Then A20G U31C C32U, with 0.06; and A20U U41A A56G U60C U78C C81U, with 0.08. Then A20U C32U A35G U41C U66C U67C, with 0.07; and A20G U41A U54A A75U, with 0.1.

As for A20G U41A A45U U66C U69A U72C, the self-cleavage is 0.07. In the case of A20G A47U U58A U80A, the self-cleavage was 0.99. In the case of A20U A28G U49A G52U U66C G73U A77U, the self-cleavage came to 0.07. The value for A20G U58C U67A was 0.12. The value for A20G U41C U54A was 1; that for A20G U49A U72C was 0.28. Then A20G C38U U41A U49C C68U, with 0.1. A20G A28U U31C C44G U72C: the self-cleavage was determined as 0.26.

As for A20G U49C A56G A65G U80C, the self-cleavage was 0.31. Then A20U U48C A64G A77G, with 0.14. The value for A20U A21G G42A was 0.53; that for A20G U51C A65G U72A was 0.31. In the case of A20G G36U U41C, the self-cleavage was determined as 0.2. Then A20G U49A A56G A64U U74C, with 0.13; and A20G U49C A65U U69C, with 0.12; and A20G U26G A45G U60C, with 0.25. On to A20U U43G U48C A57C C62U, for which the self-cleavage came to 0.2. Then A20G U26C G55U, with 0.12; and A20G U25C U26C U51A A57G, with 0.08; and A20G U25C U67C C71A, with 0.03. Then A20G A35C U60C A75G A77U, with 0.17; and A20G U48C U60C A64G U66G U72C, with 0.16; and A20U A28G U41A A56U A57G, with 0.15. Then A20G G33A A35G A56G, with 0.08; and A20G A28G U58G U69A U80A, with 0.06; and A20G U67A U72A, with 0.6.

As for A20G G42A A56G U76C, the self-cleavage was determined as 0.1. Then A20G G33C U43A U78A, with 0.09; and A20U C39A U49A, with 0.12.

Regarding A20G U31C U43G U67C U78C, the self-cleavage was 0.09. For A20G U41C U54C U69C, the self-cleavage is 0.18. The value for A20G A45G U80C was 0.82; that for A20U A28U U48A was 0.07; that for A20U A28G U31A A65G U72A was 0.05. The value for A20G A35U U48C G55A A57C was 0.24. On to A20U U31C C32G C37G U43A A45G U69C, for which the self-cleavage is 0.07. Then A20G C32A U41C U43C C62U U67C C68U, with 0.09.

Consider A20U G52C A64G U69C U74A U80C, for which the self-cleavage turned out to be 0.15. As for A20G C50U U76C, the self-cleavage came out at 0.83. Then A20G A28G U48C A56G U69A, with 0.1; and A20G A64G A65U, with 0.4. In the case of A20G U54C U74C, the self-cleavage came out at 1.23.

Consider A20G U26A U31C U49C U66C, for which the self-cleavage turned out to be 0.07. The value for A20G A45U U54C G61C A65G U74A was 0.09; that for A20U G33A A35G was 0.24; that for A20G A35U U60A U72A was 0.07. The value for A20G U26A U51A U78C was 0.36; that for A20U U51A A77G was 0.28.
